# Measurements reported in paper PMC4336329 (PLoS ONE, 2015).
# Screen size: about 310,000 compounds; about 2,200 (0.71%) showed an effect of 50% or more. The effect is printed as a negative number. This is one part of the list.
# Molecular target: human ether-à-go-go-related gene (hERG) potassium channel (human, UniProt Q12809)
# Assay: primary screen, population patch clamp on CHO cells stably expressing hERG
# Sequence of human ether-à-go-go-related gene (hERG) potassium channel (Q12809 whole entry, looked up): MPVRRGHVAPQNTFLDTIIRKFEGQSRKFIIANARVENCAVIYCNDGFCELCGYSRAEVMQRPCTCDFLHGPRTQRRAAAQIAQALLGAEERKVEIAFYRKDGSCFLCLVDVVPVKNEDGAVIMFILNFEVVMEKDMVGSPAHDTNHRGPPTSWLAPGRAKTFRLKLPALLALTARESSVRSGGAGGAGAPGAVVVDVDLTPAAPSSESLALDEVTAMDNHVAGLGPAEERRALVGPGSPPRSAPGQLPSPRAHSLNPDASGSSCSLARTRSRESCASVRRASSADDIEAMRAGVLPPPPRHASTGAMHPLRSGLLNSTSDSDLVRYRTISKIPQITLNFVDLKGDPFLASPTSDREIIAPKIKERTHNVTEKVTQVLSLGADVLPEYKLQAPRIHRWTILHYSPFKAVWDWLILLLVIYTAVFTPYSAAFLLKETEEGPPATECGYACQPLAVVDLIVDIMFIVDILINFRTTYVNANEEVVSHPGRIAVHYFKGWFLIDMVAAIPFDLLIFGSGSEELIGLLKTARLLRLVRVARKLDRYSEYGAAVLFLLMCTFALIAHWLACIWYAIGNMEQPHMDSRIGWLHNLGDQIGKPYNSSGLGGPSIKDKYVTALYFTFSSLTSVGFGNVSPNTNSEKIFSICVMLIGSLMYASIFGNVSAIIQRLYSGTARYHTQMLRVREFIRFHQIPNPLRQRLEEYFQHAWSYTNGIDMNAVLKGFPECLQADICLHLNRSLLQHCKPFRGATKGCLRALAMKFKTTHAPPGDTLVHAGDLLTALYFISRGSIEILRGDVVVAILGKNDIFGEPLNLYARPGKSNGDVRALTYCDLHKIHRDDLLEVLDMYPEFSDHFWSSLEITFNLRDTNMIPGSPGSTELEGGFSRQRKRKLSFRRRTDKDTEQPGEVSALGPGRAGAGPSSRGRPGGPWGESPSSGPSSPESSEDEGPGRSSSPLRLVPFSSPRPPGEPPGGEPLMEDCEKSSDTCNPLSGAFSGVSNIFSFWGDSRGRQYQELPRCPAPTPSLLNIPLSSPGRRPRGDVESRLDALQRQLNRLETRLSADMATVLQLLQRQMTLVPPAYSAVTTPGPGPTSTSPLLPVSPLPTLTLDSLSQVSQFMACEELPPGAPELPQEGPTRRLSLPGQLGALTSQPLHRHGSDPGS
row,Compound,"hERG current change (%, negative = inhibition) at 1uM [%]"
1,CCOc1ccccc1NC(=O)C1=C(C)NC(=O)NC1c1cccc(OC)c1OC (stereo not drawn),16.2
2,CCOC(=O)C1(CCCc2ccccc2)CCN(C(=O)C2CCCO2)CC1 (stereo not drawn),5.58
3,Cc1ccc(C2(O)CC(C)N(C)CC2C)cc1 (stereo not drawn),14.6
4,COc1cc(C(=S)N2CCCC2)cc(Cl)c1OCC(=O)Nc1ccc(C)cc1C,9.32
5,CCOC(=O)CCC(=O)NNC(=O)COc1ccc(C(C)C)cc1Br,-2.35
6,COc1cc(-c2nc(-c3ccc(NC(=O)c4ccc5c(c4)OCO5)cc3)no2)cc(OC)c1OC,12.7
7,O=C(Cn1nc(C(F)(F)F)cc1C1CC1)NCc1ccccc1F,9.54
8,CC(=O)Nc1cc(C(=O)NCc2ccco2)ccc1Sc1ccc(Cl)cc1,0.469
9,COc1ccc(-c2nnc(SCc3nnc(-c4ccccc4)o3)n2C)cc1OC,-18.8
10,Cc1ccc(OCCC(=O)OC(C)C(=O)NC2CC2)cc1 (stereo not drawn),13.1
11,CC(C)OC(=S)N/C(=N\S(=O)(=O)c1ccccc1)c1ccccc1,3.61
12,O=C(OCCN=C1NS(=O)(=O)c2ccccc21)c1ccco1,11.5
13,C=C(C)c1cccc(C(C)(C)NC(=O)Nc2ccc(C)cn2)c1,12.1
14,CCOc1ccccc1OCC(=O)OCC(=O)NNC(=O)c1ccc([N+](=O)[O-])cc1,4.34
15,Cc1ccc(-c2csc(NC(=O)c3cccs3)n2)cc1,13.5
16,COCCCNc1nc2ccccc2nc1NS(=O)(=O)c1ccc(OC)cc1,12.6
17,CCOC(=O)c1c(C)[nH]c(C(=O)OCC(=O)Nc2cc(C)ccc2OC)c1C,9.06
18,CC(=NCc1ccco1)C1=C(O)c2ccccc2C1=O,2.47
19,Cc1cc(C)nc(NS(=O)(=O)c2ccc(NC(=O)CCC3COc4ccccc4O3)cc2)n1 (stereo not drawn),3.52
20,COc1ccc(/C=N/NC(=O)c2ccn[nH]2)cc1COc1ccc(Cl)cc1Cl,6.11
21,CC(NC(=O)c1ccc(OC2CCN(Cc3ccccn3)CC2)cc1)c1ccccc1 (stereo not drawn),0.843
22,CC(C)Cc1nnc(NC(=O)CCC(=O)N2CCN(c3ccc(Cl)cc3)CC2)s1,10.4

row,Compound,"hERG current change (%, negative = inhibition) at 1uM [%]"
1,O=C(CS(=O)(=O)c1ccc(Cl)cc1)NCCS(=O)(=O)c1ccc(Cl)cc1,-13.2
2,O=C(CCCCCn1c(=S)[nH]c2ccsc2c1=O)NC1CCCCC1,6.47
3,COc1ccc(CNC(=O)/C=C/c2ccc(S(=O)(=O)N3CCOCC3)cc2)cc1,6.02
4,Cc1cccc(NC(=O)/C(C#N)=C/c2cn(CC(=O)NCc3ccco3)c3ccccc23)c1C,-9.93
5,CCOC(=O)C1CCN(c2cc(=O)n(-c3ccccc3Cl)c(=O)[nH]2)CC1,12.2
6,O=C(CS(=O)(=O)c1ccccc1)Nc1ccc(Cl)cn1,6.63
7,CNC(=O)COC(=O)c1ccccc1NC(=O)c1ccco1,-8.43
8,N#Cc1cn(CC(=O)O)c2ccccc12,5.61
9,CN(C)C(=O)c1ccc(-c2nnc(NCc3ccccc3)c3ccccc23)cc1,-10.8
10,N#Cc1cn(CC(=O)NCC2CCCO2)c2ccccc12 (stereo not drawn),9.64
11,CSc1ccc(CSCC(=O)N2CCN(S(=O)(=O)c3ccc(C)cc3C)CC2)cc1,4.65
12,O=C(NCCN1CCOCC1)c1c(O)nc2sccn2c1=O,18.8
13,CCOC(=O)C1=C(C)NC(=O)NC1C1CC=CCC1 (stereo not drawn),9.44
14,CCOc1ccc(C2C(C#N)=C(N)Oc3cc(C)n(CCN(C)C)c(=O)c32)cc1OCC (stereo not drawn),-14.9
15,c1ccc(CCNC2=NCCS2)cc1,10.7
16,CC(C)CCN1C(N(C)C)=NC[C@@H]1C,17
17,CC(C)CN(C(=O)COC(=O)CCc1nc2ccccc2s1)c1c(N)n(Cc2ccccc2)c(=O)[nH]c1=O,9.03
18,CCCCNC(=O)NC1(C(F)(F)F)Oc2ccccc2O1,1.29
19,CCOC(=O)C(C(=O)OCC)N(C#N)c1nc(SC)nc(N(C)C)n1,-1.13
20,COc1ccc(OC)c(NC(=O)c2ccc(S(=O)(=O)N3CCN(C)CC3)cc2)c1,6.54
21,O=C(C1CC1)N1CCc2cc(Br)cc(S(=O)(=O)NC3CCCCC3)c21,10.8
22,COc1ccc(C2C3=C(OC(C)=O)c4ccccc4C3=Nc3c2c(=O)n(C)c(=O)n3C)cc1 (stereo not drawn),7.97

row,Compound,"hERG current change (%, negative = inhibition) at 1uM [%]"
1,CC(=O)C1C(=O)CC(C)(O)C(C(C)=O)C1c1ccccc1 (stereo not drawn),12.3
2,Cc1c(C(=O)OCC(=O)N(CCC#N)c2ccccc2)oc2c1ccc1ccccc12,6.58
3,CCOC(=O)N1CCN(C(=O)CCSc2ccc(Cl)cc2)CC1,-20.4
4,COc1ccc(Br)c(C(=O)OCC(=O)NC2CCCCCC2)c1,-1.39
5,COc1ccc(Nc2nc(Cl)nc(Nc3ccc(OC)cc3OC)n2)c(OC)c1,9.71
6,Cc1ccc(-c2csc(NC(=O)C3=NN(C4CCS(=O)(=O)C4)C(=O)CC3)n2)cc1 (stereo not drawn),3.07
7,COc1ccc(NC(=O)CSc2nccn2Cc2ccccc2)c(OC)c1,6.24
8,CC1CCCC(C)N1S(=O)(=O)c1ccc(S(=O)(=O)NCCc2ccncc2)cc1 (stereo not drawn),-3.98
9,CCOC(=O)C1=C(C)N(C)C(C)=C(C(=O)OCC)C1c1ccccc1,10.5
10,CCC(CC)c1nc(C#N)c(NC(C)c2ccccc2)o1 (stereo not drawn),13.5
11,COCC(C)Nc1nc(C)c(C(C)=O)s1 (stereo not drawn),3.75
12,O=Cc1ccc(-c2ccc(F)cc2)o1,3.76
13,Cc1cccc(-n2c(C)nc3cc(C(=O)NCC4CCCO4)ccc32)c1 (stereo not drawn),5.69
14,O=C(Nc1ccc(Cl)cc1)Nc1nnc(SCc2ccc(Cl)cc2)s1,6.21
15,Cc1ccn(CC(=O)N2CCCC(N3CCN(Cc4ccc5c(c4)OCO5)CC3)C2)n1 (stereo not drawn),11.3
16,Cc1ccc(SCCC(=O)OC(C(=O)NC(N)=O)C(C)C)cc1 (stereo not drawn),7.5
17,O=C(O)c1ccccc1C(=O)N1CCN(c2ccccc2)CC1,10.7
18,NC(=NC(=O)c1ccccc1)N1CCN(C(c2ccccc2)c2ccccc2)CC1,2.02
19,Cc1cc(C)n(C(=O)CN2C(=O)CCC2=O)n1,18.5
20,CC(=O)Oc1ccc(N(C(C)=O)S(=O)(=O)c2cccs2)cc1,-0.517
21,COc1cc(C(=O)N2CCN(C(=O)C3COc4ccccc4O3)CC2)cc(OC)c1OC (stereo not drawn),-4.76
22,CCOc1cc(C(=O)Nc2ccc(N3CCN(S(C)(=O)=O)CC3)cc2)cc(OCC)c1OCC,8.59

row,Compound,"hERG current change (%, negative = inhibition) at 1uM [%]"
1,COc1cccc(=O)c2c(C)oc(C)c12,5.14
2,O=C1c2ccccc2C(=O)N1CCCc1cn(C[C@H]2CC[C@@H]([C@@H]3CC[C@H](Cn4cc(CCCN5C(=O)c6ccccc6C5=O)nn4)O3)O2)nn1,7.88
3,O=C(Nc1cc(=O)[nH]c2nc(-c3ccccc3)nn12)c1ccccc1Cl,18.3
4,CC1=C(C(N)=O)C(c2ccc(C)o2)C(C(N)=O)=C(C)N1,18
5,CCOc1ccc2[nH]c(=O)c(CN(Cc3ccc(C)cc3)C(=O)N3CCCC3)cc2c1,14.7
6,COc1cc(C(=O)Nc2ccc(S(=O)(=O)Nc3onc(C)c3C)cc2)cc(OC)c1OC,8.98
7,COc1cccc(NC(=O)CN(C)C(C)C(=O)Nc2cc([N+](=O)[O-])ccc2Cl)c1 (stereo not drawn),-2
8,Cc1cccc(N2CCN(C(=O)C3CCN(S(=O)(=O)N4CCOCC4)CC3)CC2)c1C,-3.43
9,COc1cc(CC(NC(C)=O)C(=O)NC2CCN(C(=O)Nc3ccc(C)cc3)CC2)cc(OC)c1 (stereo not drawn),9.36
10,CC(C)c1ccc(CNC(=O)CSCC(=O)Nc2ccc3ccccc3c2)cc1,9.73
11,COc1ccc(OC)c(NC(=O)CCN2CCC(C)CC2)c1.Cl,13.9
12,CC(C)Sc1nc2ccc(N3C(=O)C4CCCCC4C3=O)cc2s1 (stereo not drawn),-6.86
13,COCCNC(=O)CCCn1c(=O)c2ccccc2n(Cc2cccc([N+](=O)[O-])c2)c1=O,7.67
14,CCCNC(=S)Nc1ccc2nc(-c3ccccn3)c(-c3ccccn3)nc2c1,13.4
15,Cc1ccc(-n2ncc(C(=O)N3CCN(C(=O)c4ccco4)CC3)c2-n2cccc2)cc1,11.2
16,O=C(CNC(c1ccccc1)c1ccccc1)Nc1ccccc1F,15.6
17,Cc1ccc(C(=O)NC(C)c2ccc(-n3ccnc3)cc2)cc1S(=O)(=O)N1CCOCC1 (stereo not drawn),-23.4
18,COC(=O)C(NC(C)=O)(Nc1nc2c(s1)CCCC2)C(F)(F)F (stereo not drawn),5.1
19,CCSc1nc2c(c(=O)[nH]c(=O)n2C)n1CC(O)COc1ccccc1C (stereo not drawn),6.8
20,CC(=O)OC1(c2ccccc2)CCN(C2CCCCC2)CC1C.Cl (stereo not drawn),-5.77
21,COc1ccccc1NC(=O)c1ccc(NC(=O)CN(C)Cc2ccccc2F)cc1,13.2
